The record followed here is paper PMC4336329 (PLoS ONE, 2015).

The whole screen tested about 310,000 compounds, of which about 14,000 (4.5%) showed an effect of 50% or more. The effect is printed as a negative number. The list shows a part of the results.
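Further: peak tail current of the secondary pulse compared with the same well before compound.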

In this assay the target is human ether-à-go-go-related gene (hERG) potassium channel (human, UniProt Q12809). Description: primary screen, population patch clamp on CHO cells stably expressing hERG.
human ether-à-go-go-related gene (hERG) potassium channel, sequence (Q12809 whole entry, looked up): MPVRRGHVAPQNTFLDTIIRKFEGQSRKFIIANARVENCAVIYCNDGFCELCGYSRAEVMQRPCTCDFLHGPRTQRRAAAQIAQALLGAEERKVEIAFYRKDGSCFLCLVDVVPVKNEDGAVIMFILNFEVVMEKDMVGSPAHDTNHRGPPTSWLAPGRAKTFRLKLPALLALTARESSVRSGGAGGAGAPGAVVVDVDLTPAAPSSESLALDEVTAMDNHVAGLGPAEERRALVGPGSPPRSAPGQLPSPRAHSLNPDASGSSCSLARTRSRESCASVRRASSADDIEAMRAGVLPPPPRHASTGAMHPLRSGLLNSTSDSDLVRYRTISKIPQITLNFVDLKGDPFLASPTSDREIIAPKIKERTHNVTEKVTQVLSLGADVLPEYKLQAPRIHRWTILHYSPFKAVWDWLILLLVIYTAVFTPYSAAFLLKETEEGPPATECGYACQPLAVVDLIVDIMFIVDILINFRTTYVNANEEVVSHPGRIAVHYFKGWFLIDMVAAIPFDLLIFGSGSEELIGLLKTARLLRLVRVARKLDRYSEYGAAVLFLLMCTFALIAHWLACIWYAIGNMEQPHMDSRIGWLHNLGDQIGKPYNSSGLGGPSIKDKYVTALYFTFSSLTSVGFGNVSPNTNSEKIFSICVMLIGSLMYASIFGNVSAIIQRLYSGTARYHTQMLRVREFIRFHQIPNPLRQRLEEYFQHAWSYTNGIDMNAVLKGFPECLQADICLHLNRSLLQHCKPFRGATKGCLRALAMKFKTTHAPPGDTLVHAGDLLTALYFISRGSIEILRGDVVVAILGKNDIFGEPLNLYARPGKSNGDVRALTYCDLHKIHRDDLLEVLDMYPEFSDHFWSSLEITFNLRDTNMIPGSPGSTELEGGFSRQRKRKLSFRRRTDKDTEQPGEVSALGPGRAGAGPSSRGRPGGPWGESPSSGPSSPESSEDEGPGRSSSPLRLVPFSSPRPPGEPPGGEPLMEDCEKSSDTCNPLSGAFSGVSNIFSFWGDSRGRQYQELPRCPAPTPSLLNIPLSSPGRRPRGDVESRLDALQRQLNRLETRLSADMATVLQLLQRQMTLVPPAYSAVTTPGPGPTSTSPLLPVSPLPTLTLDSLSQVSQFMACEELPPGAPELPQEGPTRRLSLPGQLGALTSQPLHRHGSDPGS
Regarding `Cc1cc(N2C(=O)[C@@H]3[C@H](C2=O)[C@@H]2C[C@H]3C(Br)C2Br)no1` (stereo partly drawn), the “hERG current change (%, negative = inhibition) at 10uM” value is on record as 10.4%. The figure for `COc1ccc(C(C(=O)NC(C)(C)C)N(C(=O)CNC(=O)c2cccs2)c2ccc(NC(C)=O)cc2)cc1OC` (stereo not drawn) is 10.4%. The figure for `COc1cccc(C(=O)OC2CCCN(C)C2)c1.Cl` (stereo not drawn) is -10.9%; for `Cc1ccc2nc(SCC(=O)c3c[nH]c4ccccc34)[nH]c2c1` it is 32.5%; for `CCOc1ccc(NC(=O)C23CC4CC(C2)CC(c2ccccc2)(C4)C3)cc1` it is 3.53%. The figure for `CC(=O)Nc1ccc(S(=O)(=O)N(C)CC(=O)OCC(=O)c2ccc3c(c2)NC(=O)CO3)cc1` is 8.14%; for `Cc1ccccc1-c1ccc(C=Nc2c(C)n(C)n(-c3ccccc3)c2=O)o1` it is -24.3%. In the case of `Cc1nc(SCC(=O)N2CCC(C(N)=O)CC2)n[nH]1`, the “hERG current change (%, negative = inhibition) at 10uM” value was determined as 20.4%. The figure for `COc1cccc(-c2nnc(SCC(=O)Nc3cc(C)ccc3OC)n2N)c1` is -24.5%; for `Cc1nc(NC(=O)c2ccccc2O)sc1C` it is 15.7%; for `COC(=O)c1nnn(-c2nonc2N)c1CN1CCCC1` it is 12.7%.

Regarding `COc1ccc(NC(=O)C2CCN(C(=O)c3cccs3)CC2)cc1`, the “hERG current change (%, negative = inhibition) at 10uM” value is -12.4%. The figure for `Cc1c(-c2c(C#N)c(N)nc3c2CCCCCC3)cnn1C` is -8.88%; for `COC(=O)/C=C1\N/C(=N\c2nc(C)cc(C)n2)N(c2ccc(C)c(C)c2)C1=O` it is -9.07%. As for `CCc1ccc(NC(=O)c2cnc3n(c2=O)CCS3)cc1`, the “hERG current change (%, negative = inhibition) at 10uM” value was -25.9%. In the case of `COc1ccc(C(=O)OCC(=O)Nc2nc3c(F)c(F)c(F)cc3s2)cc1OC`, the “hERG current change (%, negative = inhibition) at 10uM” value is 13.3%. The figure for `C/C(=N\Nc1ccc(Cl)c(C(=O)O)c1)c1ccc2c(c1)OCO2` is 24.3%.

As for `COc1ccccc1N1CCN(C2CCCN(C(=O)CCc3ccccn3)C2)CC1` (stereo not drawn), the “hERG current change (%, negative = inhibition) at 10uM” value is recorded as -34.1%.

Take `O=C1CN(C(=O)c2ccc(Br)o2)C(c2ccccc2)c2cc(Cl)ccc2N1` (stereo not drawn): the “hERG current change (%, negative = inhibition) at 10uM” value is recorded as -28%. The figure for `O=C(CCC(=O)Nc1ccccc1)NNC(=O)CCc1ccccc1` is 14.5%; for `Cc1ccc(C(=O)Nc2ncc(C)s2)s1` it is 16.8%; for `COc1ccc2c(c1)/C(=N/N1C(=O)c3ccccc3C1=O)C(=O)N2` it is 10.1%. The figure for `O=C(NCc1ccco1)c1nn2c(C(F)(F)F)cc(-c3cccs3)nc2c1Cl` is 3.45%; for `O=C(Nc1nc2n(n1)C(c1ccc(Cl)cc1)CC(c1ccc(Cl)cc1)N2)c1ccco1` (stereo not drawn) it is -38.3%. The figure for `COc1cccc(-c2nnc(SCC(=O)NC3CCS(=O)(=O)C3)n2C)c1` (stereo not drawn) is 4.26%; for `CCc1ccc(NC(=O)C2CCCCC2C(=O)O)cc1` (stereo not drawn) it is 11.8%. Take `COc1ccc(CC(=O)NNC(=O)CSc2nnc(Cc3ccc(OC)cc3)n2-c2ccccc2)cc1`: the “hERG current change (%, negative = inhibition) at 10uM” value was -7.6%. As for `CCOC(=O)c1c(C)[nH]c(C(=O)OCC(=O)Nc2ccc(OCC)cc2)c1C`, the “hERG current change (%, negative = inhibition) at 10uM” value was -2.99%. The figure for `CCN(CC)c1ccc(N=Nc2ncn[nH]2)cc1` is 4.53%; for `COC(=O)[C@]1(C)N[C@H](c2ccc(-c3ccccc3)cc2)[C@@H]2C(=O)N(C)C(=O)[C@@H]21.O=C(O)C(F)(F)F` it is 8.15%; for `O=C(CC1(O)C(=O)N(CN2CCOCC2)c2ccccc21)c1ccccc1` (stereo not drawn) it is -70.4%. `c1coc(-c2ccnc(-n3cccc3)n2)c1`: the “hERG current change (%, negative = inhibition) at 10uM” value is 10%.

For the molecule `Cc1nnc(SCC2=C(C(=O)O)N3C(=O)C(NC(=O)c4cc(F)c(F)cc4Cl)C3SC2)s1` (stereo not drawn), the “hERG current change (%, negative = inhibition) at 10uM” value is reported as -2.66%.

With `COc1ccc(NC(=O)[C@H](C)NC(=O)C2CCN(S(=O)(=O)c3ccc(OC)cc3)CC2)cc1`, the “hERG current change (%, negative = inhibition) at 10uM” value is recorded as 12.4%. For `CCCCNC(=O)c1ccccc1NC(=O)CCSc1ccccc1`, the “hERG current change (%, negative = inhibition) at 10uM” value was -9.27%. The figure for `O=C(/C=C/c1ccco1)NCC1COc2ccccc2O1` (stereo not drawn) is -0.808%; for `CCOc1ccc(S(=O)(=O)NCc2ccc3c(c2)OCO3)cc1C(=O)O` it is 13.7%; for `CCN(CC)S(=O)(=O)c1ccc(C(=O)Nc2c3c(nn2C(C)(C)C)CS(=O)(=O)C3)cc1` it is 2.06%.

Take `O=C(Nc1nnc(SCc2ccccc2)s1)C1=COCCO1`: the “hERG current change (%, negative = inhibition) at 10uM” value is given as -20.3%. The figure for `CC1(c2ccccc2)NC(=O)N(CC(=O)Nc2ccc(S(=O)(=O)Nc3ncccn3)cc2)C1=O` (stereo not drawn) is 12.6%; for `CCN1C(=O)[C@H]2[C@@H](c3ccc(OC)cc3)N3C(=O)CN(CCOC)C(=O)[C@@]3(Cc3ccccc3)[C@H]2C1=O` it is -4.3%; for `Cc1ccc(C2NC(C(=O)O)CS2)cc1` (stereo not drawn) it is 8.9%.
